According to PMC7819943, “Rice protein-binding microarrays: a tool to detect cis-acting elements near promoter regions in rice”:
The other results are listed elsewhere or left out.

Each sequence was assayed against T1, OsWOX13 (Oryza sativa, UniProt Q5QMM3 1-267) (assay: protein-binding microarray (RPBM); PBS, 2% BSA, 51.3 ng/ul salmon testes DNA, 50 uM zinc acetate, 200 nM TF, 25 C, 1 h; high values mean tight binding). Settings: protein: recombinant; tags: N-terminal polyhistidine and DsRed monomer fusion (pET32a); label: CyDye5-dUTP incorporated in the synthesized complementary strand; 3' TTTTT single-stranded linker to array surface; dsDNA, one strand shown.
T1 sequence: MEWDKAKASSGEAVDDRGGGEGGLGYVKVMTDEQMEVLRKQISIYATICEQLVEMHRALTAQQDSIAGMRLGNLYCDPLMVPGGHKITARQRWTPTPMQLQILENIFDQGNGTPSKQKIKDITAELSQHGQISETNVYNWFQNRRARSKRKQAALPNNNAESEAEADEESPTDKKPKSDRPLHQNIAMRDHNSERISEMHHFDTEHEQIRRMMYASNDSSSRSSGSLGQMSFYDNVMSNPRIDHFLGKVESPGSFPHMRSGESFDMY
Outline: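 For the binding signal, per-feature fluorescence intensity was read in arbitrary units on an Axon 4000B scanner. Before scanning, a 2% BSA-blocked custom Agilent array made double-stranded with Cy5-dUTP was washed after 1 h at 25 °C with 200 nM protein and 50 µM zinc acetate. The proteins were Ni–NTA-purified transcription factors with N-terminal polyhistidine and DsRed fusions, expressed in E. coli BL21-CodonPlus.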
For “TGGAACATTGTTGATTGGCGAGCTGGCACGCATGCTAGGTCGGAGTCACCTAGTGCAG”, the binding signal was 18600 fluorescence intensity (a.u.). For “TTAAATTGGCTATATATGTTTAGTTGGCTATACTAATTACCGGAGTCACCTAGTGCAG”, the binding signal was 18900 fluorescence intensity (a.u.). In the case of “AGGTGATTTGTCAAGTGAGGACTTTGGAGATTGTGATTGGCGGAGTCACCTAGTGCAG”, the binding signal is reported as 25100 fluorescence intensity (a.u.). In the case of “TTACTGATTTACTGTTAATAAGACAGGCAACACAGACTTACGGAGTCACCTAGTGCAG”, the binding signal is reported as 21500 fluorescence intensity (a.u.). With “GCCAATTTAACAGTCATTGTACCAAATTGTTCTCTATGTTCGGAGTCACCTAGTGCAG” the binding signal was 8670 fluorescence intensity (a.u.). “TTCTTTCTTAATTACAGTCAGTCTTAAAAGTGAAATTTTGCGGAGTCACCTAGTGCAG” was tested, and the binding signal was 10100 fluorescence intensity (a.u.). In the case of “TGGTTGATGGCTTTTGATTCAATTGATATCAAAACGATAACGGAGTCACCTAGTGCAG”, the binding signal is reported as 11800 fluorescence intensity (a.u.). “GTAAATTTGTTCCGGCCTGAACTTATTGGAGACGCTCACTCGGAGTCACCTAGTGCAG” was tested, and the binding signal was 8600 fluorescence intensity (a.u.). In the case of “AGTTAACTCGACAATCATTGGGTGGTGTTCAGGTAACTTGCGGAGTCACCTAGTGCAG”, the binding signal is reported as 14700 fluorescence intensity (a.u.). In the case of “GGGTCCTTGATTTCCTGTGAATCACTCATTTGATACAGAACGGAGTCACCTAGTGCAG”, the binding signal is reported as 4610 fluorescence intensity (a.u.). “GATTTTGTCATCAGTGACCACTAATCACTGACCAAGACCACGGAGTCACCTAGTGCAG” was tested, and the binding signal was 4240 fluorescence intensity (a.u.). With “ATATCAATTTCCTTAACCGAATATAGCAAGAATCCGACAACGGAGTCACCTAGTGCAG” the binding signal was 3870 fluorescence intensity (a.u.). With “CAAAATTTAACTTCTATAAATTGTAACAAAAGTAACAAATCGGAGTCACCTAGTGCAG” the binding signal was 8360 fluorescence intensity (a.u.). In the case of “CTTAACTTGATAATCTTTCTTAAGTCCCTAAATGTAAGTTCGGAGTCACCTAGTGCAG”, the binding signal is reported as 6620 fluorescence intensity (a.u.). With “TATAAGCCAGTTGGGATCAATCAGGCTAGCAAACAGAGGACGGAGTCACCTAGTGCAG” the binding signal was 4530 fluorescence intensity (a.u.). With “GCTATGACCATTTCACTTAATTAAGTAACTGAATAAATATCGGAGTCACCTAGTGCAG” the binding signal was 9310 fluorescence intensity (a.u.). In the case of “GTAGTTTTCATTAATGTTTAATCAGCTCTATATATTTGAACGGAGTCACCTAGTGCAG”, the binding signal is reported as 3320 fluorescence intensity (a.u.). In the case of “AAATACTAGAATGATTTACATTATGAAACGGAGGGAGTACCGGAGTCACCTAGTGCAG”, the binding signal is reported as 4500 fluorescence intensity (a.u.). For “CTTTAGATGAAAATTAAGTTCGAACCAAACCATTGGTGCACGGAGTCACCTAGTGCAG”, the binding signal was 5140 fluorescence intensity (a.u.). “CTTTCCAAATTAGTTGCGGGAATGGAATCCTATCAATCTCCGGAGTCACCTAGTGCAG” was tested, and the binding signal was 3900 fluorescence intensity (a.u.). “ATCAATTATCTATGCAGAAGAAAATATATATCCCTCCATGCGGAGTCACCTAGTGCAG” was tested, and the binding signal was 3520 fluorescence intensity (a.u.). “TTTCCTAATTATAAAGGCGCGCGGAAGGGGCGAGCGCTGACGGAGTCACCTAGTGCAG” was tested, and the binding signal was 4850 fluorescence intensity (a.u.). “TTTGATTTGGCCATATGAATACTCCCAACTTTCATACCGACGGAGTCACCTAGTGCAG” was tested, and the binding signal was 14900 fluorescence intensity (a.u.). “ACACTACTAATTACCAACATATGTGGCACGAGAACATCTACGGAGTCACCTAGTGCAG” was tested, and the binding signal was 6460 fluorescence intensity (a.u.). In the case of “GATTTAACGTTACATATCAATCTAAGAGTAGGATGGTACACGGAGTCACCTAGTGCAG”, the binding signal is reported as 9230 fluorescence intensity (a.u.). In the case of “ATAAAACTGGTAAATTGATGAGCGCGTCTAACGGCGGTCGCGGAGTCACCTAGTGCAG”, the binding signal is reported as 42100 fluorescence intensity (a.u.). “TGGATTGATACTTTGAGGTATAAAATAGTTTGAAGTGATACGGAGTCACCTAGTGCAG” was tested, and the binding signal was 6880 fluorescence intensity (a.u.). With “TTATTTGCATTGATTTAATAGGGTTTACTCTTGCTTTGCACGGAGTCACCTAGTGCAG” the binding signal was 7870 fluorescence intensity (a.u.). For “CTAAGCAATCGTGCTTCTGTCAACACATGTGATTAGGGATCGGAGTCACCTAGTGCAG”, the binding signal was 6230 fluorescence intensity (a.u.). “CGTGCGATTAGATTAATCTTGGAGATTTATCTTAACACGACGGAGTCACCTAGTGCAG” was tested, and the binding signal was 13000 fluorescence intensity (a.u.). In the case of “AGGGTTGCGAGGTGGAGGTGATTGGCTCTACGCCATGGCGCGGAGTCACCTAGTGCAG”, the binding signal is reported as 4420 fluorescence intensity (a.u.). With “CGTTCGTCAATTTACCCGCGACAATAAATGTTCCATTGAGCGGAGTCACCTAGTGCAG” the binding signal was 9650 fluorescence intensity (a.u.). For “CCCAAATATACCAATTATTTATTCACCATCTCAACCCTAGCGGAGTCACCTAGTGCAG”, the binding signal was 9490 fluorescence intensity (a.u.). With “AGGCAAATTGTATATACTAAACACAAGTGCCCCGAAAAGTCGGAGTCACCTAGTGCAG” the binding signal was 3760 fluorescence intensity (a.u.). For “AGCTAGAATTTGATTAGTCCTTCAGACAGCCAGGATCAGTCGGAGTCACCTAGTGCAG”, the binding signal was 8390 fluorescence intensity (a.u.). With “GAAATGACATTTCAATTCATCTATTTATTAGCGGGAGTTGCGGAGTCACCTAGTGCAG” the binding signal was 5540 fluorescence intensity (a.u.). With “GGTGTAAATATAAATTTGTACGTTGACATAAAAGAGAAAACGGAGTCACCTAGTGCAG” the binding signal was 6640 fluorescence intensity (a.u.). “GCTAATTAAGTAGTTTAGTGCTTTAACCATGAATAAACTACGGAGTCACCTAGTGCAG” was tested, and the binding signal was 4920 fluorescence intensity (a.u.). “CTGAGATGATTTTGTTCATGCATGAAGTCCTTTCTGAAGTCGGAGTCACCTAGTGCAG” was tested, and the binding signal was 9590 fluorescence intensity (a.u.). “TAAACTTAATTTTAAAATCATAATTCAGAAATGTGGTGAACGGAGTCACCTAGTGCAG” was tested, and the binding signal was 30500 fluorescence intensity (a.u.). For “TCTCACTGATTGAGCATCAGAGATTCGTTTGTTACCCAGTCGGAGTCACCTAGTGCAG”, the binding signal was 37000 fluorescence intensity (a.u.). “GGAGTGATTAAATTAGTTAATTAGTTAATAATCCCATTGACGGAGTCACCTAGTGCAG” was tested, and the binding signal was 56800 fluorescence intensity (a.u.).
